The campaign covered roughly 390,000 compounds. About 910 (0.23%) were called active. Roughly 5% stayed inconclusive and do not appear here. The call rests on the fitted dose curve; in most records, active means well fitted inhibition curve with a large enough effect; inconclusive means small, poorly fitted or top-dose-only effect; inactive means no such curve, though single readings can be large or run the other way. The entries are a selection whose mix differs from that of the whole data set.
What follows are molecules tested against Ubiquitin carboxyl-terminal hydrolase 1 (Homo sapiens) (UniProt O94782) (assay: Inhibitors of USP1/UAF1: Primary Screen). Details: recombinant USP1/UAF1, Ub-Rhodamine cleavage fluorescence; activity change, negative = inhibition: at 57.1 µM (top of the series).
Sequence of UniProt O94782 (O94782 whole entry, looked up): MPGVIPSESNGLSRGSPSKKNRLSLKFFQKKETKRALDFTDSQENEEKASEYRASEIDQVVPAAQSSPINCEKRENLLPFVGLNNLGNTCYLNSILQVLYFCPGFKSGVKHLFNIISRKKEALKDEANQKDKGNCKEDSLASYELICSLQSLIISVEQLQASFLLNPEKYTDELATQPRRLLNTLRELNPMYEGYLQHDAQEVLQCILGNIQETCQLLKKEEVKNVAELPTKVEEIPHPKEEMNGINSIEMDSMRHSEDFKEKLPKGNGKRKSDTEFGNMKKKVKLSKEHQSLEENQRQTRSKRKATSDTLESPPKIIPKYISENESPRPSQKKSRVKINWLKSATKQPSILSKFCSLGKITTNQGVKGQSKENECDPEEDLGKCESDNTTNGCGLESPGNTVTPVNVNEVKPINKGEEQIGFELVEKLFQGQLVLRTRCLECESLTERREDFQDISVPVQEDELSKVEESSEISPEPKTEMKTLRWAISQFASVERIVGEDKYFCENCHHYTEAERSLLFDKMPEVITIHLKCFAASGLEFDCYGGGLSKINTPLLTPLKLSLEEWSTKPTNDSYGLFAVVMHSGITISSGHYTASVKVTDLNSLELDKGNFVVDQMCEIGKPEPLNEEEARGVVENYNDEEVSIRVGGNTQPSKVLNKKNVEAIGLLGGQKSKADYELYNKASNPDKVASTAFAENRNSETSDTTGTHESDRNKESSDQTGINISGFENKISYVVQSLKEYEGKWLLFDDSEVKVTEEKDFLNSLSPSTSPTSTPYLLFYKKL
In short: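 USP1/UAF1 complex (1 nM) preincubated 15 min at room temperature with compound, then Ub-Rho substrate (150 nM final) added. Kinetic fluorescence at 480/540 nm over 6 reads at 60 s intervals; 50 mM HEPES pH 7.8, 0.5 mM EDTA, 0.1 mg/ml BSA, 1 mM TCEP, 0.01% Tween-20.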
Further: nearly all actives have a fitted effect of over 60% in size.
On the % scale 0 is the no-effect control and ±100 the full control effect; potency means the concentration at half of the fitted maximal effect.

| Compound | activity change, negative = inhibition | Potency |
| --- | --- | --- |
| CC1CCN(S(=O)(=O)c2ccc3c(c2)N(CC(=O)NCCCN2CCCCC2C)C(=O)CS3)CC1 (stereo not drawn) | inactive: -18.6% | – |
| CCOC(=O)[C@@H]1[C@H]2COc3ccccc3[C@@H]2N2C(=O)N(c3ccccc3)C(=O)[C@]12C | inactive: -24.6% | – |
| COc1cc(/C=C2\SC(=O)N(CC(=O)Nc3ccc(C)cc3)C2=O)cc(Cl)c1OCC(=O)O | inactive: 15% | – |
| C[C@@H](NC(=O)c1nc[nH]c1C(=O)N[C@H](C)c1ccccc1)c1ccccc1 | inactive: -21.1% | – |
| Cc1ccc(-c2nn3c(C)nnc3c3ccccc23)cc1S(=O)(=O)NC(C)(C)CO | inactive: -19.4% | – |
| CC1=NN(c2ccccc2)C(=O)/C1=C\C=C1\N(C)c2ccccc2C1(C)C | inactive: -23.5% | – |
| O=c1c2ccccc2c(/C=N/c2ncn[nH]2)c(O)n1Cc1ccccc1 | inactive: -12.2% | – |
| COc1ccc2[nH]c(S(=O)Cc3ncc(C)c(OC)c3C)nc2c1 (stereo not drawn) | inactive: -23.2% | – |
| C[C@H](NC(=O)c1[nH]cnc1C(=O)N[C@@H](C)CO)c1ccccc1 | inactive: -2.63% | – |
| COc1ccccc1/C=C/C=N/n1c(C2CCCCC2)n[nH]c1=S | inactive: -7.61% | – |
| C/C(=N\NC(=O)c1ccccc1F)c1ccc2c(c1)Nc1ccccc1S2 | inactive: 77.9% | – |
| CCN(C(=O)CCNC(=O)Cn1cnc2ccccc2c1=O)c1cccc(Cl)c1 | inactive: 4.84% | – |
| Cc1ccc(/C=C2/SC(=S)N(CCC(=O)N3CCOCC3)C2=O)cc1 | inactive: -21% | – |
| O=C(C[C@@H]1C/C=C\C[C@H](NC(=O)OCC2c3ccccc3-c3ccccc32)C(=O)OC[C@@H]2CCCN2C1=O)N[C@H](CO)Cc1ccccc1 | inactive: -25% | – |
| COc1ccc(CN(C)C[C@H]2OCc3cnnn3CCCC(=O)N([C@H](C)CO)C[C@@H]2C)cc1 | inactive: -1.62% | – |
| O=C(NC(Cc1ccccc1)C(=O)O)/C(=C\c1ccc([N+](=O)[O-])cc1)NC(=O)c1ccco1 (stereo not drawn) | inactive: -7.27% | – |
| S=c1[nH]nc(-c2ccc(Cl)cc2)n1Cc1ccccc1 | inactive: -12.8% | – |
| Cc1cccc(C(=O)O[C@H]2[C@H](Cc3ccccc3)NS(=O)(=O)[C@H]3CC4C=C[C@]23O4)c1 | inactive: -18.7% | – |
| COC(C[C@H]1O[C@@H]1[C@H](O)[C@H](C)OCc1ccccc1)OC | inactive: -20.9% | – |
| C=CC[C@@H](CC(=O)N(CCO)Cc1ccccc1)C(=O)N[C@H](COC(=O)[C@@H](CC=C)Cc1ccc(F)cc1)Cc1ccccc1 | inactive: -15.2% | – |
| COCC(=O)OC1CCn2c1nc1c2C(=O)C(C)=C(NC(C)=O)C1=O (stereo not drawn) | – | active: 4.47 µM |
| COc1cc(/C=C2\S/C(=N/S(=O)(=O)Cc3ccccc3)NC2=O)c([N+](=O)[O-])cc1OC | inactive: -14.5% | – |
| C[C@@H]1CN([C@@H](C)CO)C(=O)CCCn2nncc2CO[C@@H]1CN(C)C(=O)Nc1ccc2c(c1)OCO2 | inactive: -24.7% | – |
| O=C(CCn1c(=O)c2cccn2c2ccc(F)cc21)NCCc1ccccc1 | inactive: 11.9% | – |
| CN(/N=C/c1ccc(N(C)C)cc1)C1=NS(=O)(=O)c2ccccc21 | inactive: 75.8% | – |
| O=C(C[C@H]1C/C=C\C[C@H](NC(=O)OCC2c3ccccc3-c3ccccc32)C(=O)O[C@H](c2ccccc2)CNC1=O)N[C@H](CO)Cc1ccccc1 | inactive: -16.6% | – |
| O=c1cc2c(c(-c3ccccc3)n1Cc1ccccc1)[C@@H](CCO)NC2 | inactive: -20.2% | – |

| Compound | activity change, negative = inhibition | Potency |
| --- | --- | --- |
| N#C/C(=C/c1ccc(N2CCCCC2)o1)C(=O)Nc1ccc2ccccc2c1 | inactive: 34.4% | – |
| C[C@H](CO)N1C[C@H](C)[C@@H](CN(C)C(=O)c2ccccc2)OCc2cnnn2CCCC1=O | inactive: -12.3% | – |
| N#Cc1ccccc1NC(=O)CSc1nc(-c2ccccc2)cc(C(F)(F)F)c1C#N | inactive: 329% | – |
| [O-]C(=C(C(=S)Nc1cccc2ccccc12)[n+]1ccccc1)c1ccc2c(c1)OCCO2 | inactive: -23% | – |
| C[C@]12C(=O)N(c3ccc(Br)cc3)C(=O)N1[C@@H]1c3ccccc3OC[C@@H]1[C@H]2c1ccccc1 | inactive: 14.1% | – |
| OCC[C@H]1C[C@@H](O)[C@H](O)[C@@]2(CCCCO2)O1 | inactive: -24.7% | – |
| CCOC(=O)c1c(-c2ccccc2)csc1NC(=O)/C(C#N)=C\c1ccc(O)c(OC)c1 | – | active: 15.8 µM |
| C=C(C)C(=O)Nc1cccc(C2=NOC3(C2)C[C@H](C(N)=O)N(C(=O)c2ccccc2C(=O)c2ccccc2)C3)c1 (stereo partly drawn) | inactive: 23.2% | – |
| S=C1Cc2ccccc2N1 | – | active: 28.2 µM |
| COc1ccc([C@H]2C[C@@H](O)[C@H](n3cc(-c4ccc(F)cc4)nn3)CN2C(=O)C2CCCCC2)cc1 | inactive: -19.3% | – |
| C[C@H](CO)N1C[C@H](C)[C@H](CN(C)S(=O)(=O)c2ccc(Oc3ccccc3)nc2)OCc2cnnn2CCCC1=O | inactive: -17.4% | – |
| CC(C)(C)C(=O)[C@@H]1[C@@H]2C(=O)N(C3CCCCC3)C(=O)[C@@H]2[C@H]2c3ccccc3C=CN12 | – | active: 25.1 µM |
| CC(C)(C)[C@@H]1COC(=O)[C@@H](Cc2ccc(F)cc2)CC/C=C\C[C@@H](CC(=O)N(CCO)Cc2ccccc2)C(=O)N1 | inactive: -25.4% | – |
| C[C@H](CO)N1C[C@H](C)[C@@H](CN(C)C(=O)C2CCCCC2)OCc2cnnn2CCCC1=O | inactive: -4.81% | – |
| C[C@H]1Cn2cnc(C(=O)Nc3cccc(Cl)c3)c2C(=O)N1 | inactive: -25.4% | – |
| Cc1ccc(C(=O)N/C(=C/C=C\c2ccccc2)C(=O)NCc2ccco2)cc1 | inactive: -12.2% | – |
| CCN(CCCNC(=O)c1cc2c(=O)n(CC)c3ccccc3c2s1)Cc1ccccc1 | – | active: 28.2 µM |
| COc1ccc(N2CCN(C(=O)c3ccc4c(=O)n(CCc5ccc(OC)c(OC)c5)c(=O)[nH]c4c3)CC2)cc1 | inactive: -9.75% | – |
| CCOC(=O)c1sc2nc3c(SCCC(=O)O)cc(C(=O)c4cc(OC)ccc4O)cn3c(=O)c2c1C | inactive: 12% | – |
| C[C@H](CO)N1C[C@H](C)[C@H](CN(C)S(=O)(=O)c2ccc(Cl)cc2)OCc2cnnn2CCCC1=O | inactive: 0.554% | – |
| CCSC1=NSC2=NC(=O)/C(=C\c3coc4ccccc4c3=O)C(=N)N12 | – | active: 22.4 µM |
| COc1ccc(OC)c2c1C(=O)c1ccccc1C2=O | – | active: 31.6 µM |
| COC1=C(N)C(=O)c2nc(-c3nc(C(=O)O)c(C)c(-c4ccc(OC)c(OC)c4O)c3N)ccc2C1=O | – | active: 11.2 µM |
| C[C@@H]1NC(=O)[C@@]2(C)[C@@H](c3ccccc3)[C@H]3COc4ccccc4[C@@H]3N2C1=O | inactive: -27.9% | – |
| Cc1nnc(NC(=O)NC(C)N2C(=O)C3C4C=CC(C4)C3C2=O)s1 (stereo not drawn) | inactive: 8.06% | – |
| CCCCCCSc1ccc([C@@H]2[C@@H]3C(=O)N(C)C(=O)[C@@H]3[C@]3(C(=O)OC)CCCCN23)cc1 | inactive: -28.3% | – |

— PubChem BioAssay AID743255 (National Center for Advancing Translational Sciences (NCATS), 2014)
